The source of these data is PMC8955265 (2022).

Holding throughout (assay): FP; competition
Experiment [1] has as its target ARID4B bisphosphorylated phosphodegron peptide (human, UniProt Q4LE39, bisphosphorylated (the two phosphorylatable residues of the degron are aa1022 and 1026)).
Experiment [2] addresses KAT6B bisphosphorylated phosphodegron peptide (human, UniProt Q8WYB5, bisphosphorylated).
Experiment [3] concerns the target KLF4 bisphosphorylated phosphodegron peptide (human, UniProt O43474, bisphosphorylated (the two phosphorylatable residues of the degron are aa394 and 398)).
The target of experiment [4] is JAZF1 bisphosphorylated phosphodegron peptide (human, UniProt Q86VZ6, bisphosphorylated (the two phosphorylatable residues of the degron are aa109 and 113)).
Experiment [5] concerns the target ETV5 bisphosphorylated phosphodegron peptide (human, UniProt P41161, bisphosphorylated (the two phosphorylatable residues of the degron are aa135 and 139)).
In experiment [6] the target is CCAR2 phosphodegron peptide (P + 4 nonphospho class) (human).
The target of experiment [7] is ZMIZ1 bisphosphorylated phosphodegron peptide (human, UniProt Q9ULJ6, bisphosphorylated (the two phosphorylatable residues of the degron are aa517 and 521)).

B1: Skp1-FBXW7 complex (complex)
chain 1: [sequence of about 150 residues omitted]
chain 2: TQVKHMMQVIEPQFQRDFISLLPKELALYVLSFLEPKDLLQAAQTCRYWRILAEDNLLWREKCKEEGIDEPLHIKRRKVIKPGFIHSPWKSAYIRQHRIDTNWRRGELKSPKVLKGHDDHVITCLQFCGNRIVSGSDDNTLKVWSAVTGKCLRTLVGHTGGVWSSQMRDNIIISGSTDRTLKVWNAETGECIHTLYGHTSTVRCMHLHEKRVVSGSRDATLRVWDIETGQCLHVLMGHVAAVRCVQYDGRRVVSGAYDFMVKVWDPETETCLHTLQGHTNRVYSLQFDGIHVVSGSLDTSIRVWDVETGNCIHTLTGHQSLTSGMELKDNILVSGNADSTVKIWDIKTGQCLQTLQGPNKHQSAVTCLQFNKNFVITSSDDGTVKLWDLKTGEFIRNLVTLESGGSGGVVWRIRASNTKLVCAVGSRNGTEETKLLVLDFDVDMK
As to B1, the Kd in experiment [1] was 17.7 nM; in experiment [2] it was 2.8 nM; in experiment [3], 11 nM; in experiment [4], 29.7 nM; in experiment [5], 16.1 nM; in experiment [6], 2190 nM. Further, in experiment [7], the Kd came to 52.3 nM.

What is called Kd is the constant that tells how readily two partners part at equilibrium.
